Measured values published in PubChem BioAssay AID1347041 (National Center for Advancing Translational Sciences (NCATS), 2019).
Among all 480,000 compounds or so, about 740 (0.15%) were called active. This list was built around the results that the source calls inconclusive (neither active nor inactive); the mix of calls is not that of the screen. No stated cut-off is given here; in the data, active means activity change below about -30%; inconclusive means mostly about -25% to -30%; inactive means weaker than that.

molecular target: L-lactate dehydrogenase A chain (Homo sapiens) (UniProt P00338); test: qHTS assay for inhibitors of human lactate dehydrogenase; settings: purified LDHA, NADH/diaphorase-resazurin fluorescence; active compounds read low;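 further: values are at about 110 or 230 µM; plate controls were DMSO wells for no effect and wells without enzyme for full effect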
Summary of the method: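 Enzyme activity of human lactate dehydrogenase 5 (2 nM; 0.06 mM NADH, 0.2 mM pyruvate, 5 min, RT) is measured via a resazurin/diaphorase fluorescence readout of residual NADH.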

Row | SMILES | activity change
1 | COc1cccc(CN2CCN(Cc3ccccc3C(F)(F)F)CC2)c1 | inconclusive: -26.1%
2 | COc1cc(OC)c(OC)cc1/C=C/c1nc2cc3ccccc3cc2c(=O)n1-c1ccccc1Br | inactive: 3.46%
3 | CC(C)(C)NCCOCCOc1ccccc1-c1ccccc1 | inconclusive: -28%
4 | CCOC(=O)c1[nH]c(C)c(CNCCc2ccc(OC)c(OC)c2)c1C | inconclusive: -25.2%
5 | CN(C)S(=O)(=O)c1cccc(NC(=O)COC(=O)c2cc3ccccc3oc2=O)c1 | inactive: -4.59%
6 | CCOC(=O)c1ccc(N2C(=O)C(O)(C(F)(F)F)C3=C2CC(C)(C)CC3=O)cc1 (stereo not given) | inactive: -7.73%
7 | O=C(OCc1ccccc1)N1CCC2CC1c1cc(N3CCN(S(=O)(=O)c4cc(Cl)cc(Cl)c4)CC3)ccc12 (stereo not given) | inconclusive: -28.9%
8 | CN(C)CCO/N=C(\c1ccc(Br)cc1)c1cccnc1 | inconclusive: -28.8%
9 | CCOc1ccc(CN2CCN(C(=O)c3ccco3)CC2)cc1 | inconclusive: -26.4%
10 | Cc1ccc(NS(=O)(=O)c2ccc3c(c2)oc(=O)n3C)cc1 | inactive: -8.17%
11 | N#Cc1ccccc1S(=O)(=O)N1CCN(CC(O)CN2CCOCC2)CC1 (stereo not given) | active: -45.4%
12 | CC(=O)Nc1ccc(C=NNc2ccc(S(=O)(=O)Nc3ccccc3C(=O)O)cc2[N+](=O)[O-])cc1 | inconclusive: -27.5%
13 | C[C@H](CO)N1C[C@H](C)[C@@H](CN(C)Cc2ccc(C(=O)O)cc2)OCc2cnnn2CCCC1=O | inconclusive: -29%
14 | NS(=O)(=O)c1ccc(NC(=O)C2(c3ccccc3)CCCC2)cc1 | inconclusive: -26.7%
15 | Cc1ccc2c(CN3CCN(c4ccccc4)CC3)cc(=O)oc2c1 | inconclusive: -28.1%
16 | Cc1noc(NS(=O)(=O)c2ccc(NC(=O)CC34CC5CC(CC(Br)(C5)C3)C4)cc2)c1C | active: -45.7%
17 | Cc1cc(C(F)(F)F)n(-c2nc(C(=O)NN)cs2)n1 | inactive: -1.44%
18 | Cc1ccc(OCCSc2nc(-c3ccccc3C)nc3cc(=O)[nH]n23)cc1Cl | inactive: -2.54%
19 | Brc1ccc(CNc2nc3ccccc3n2CCN2CCCCC2)cc1 | inactive: 1.04%
20 | Cc1c(Cl)cccc1NC(=S)N(CCCN1CCOCC1)Cc1ccco1 | inactive: -0.71%
21 | COc1ccc(C(=O)N2CCN(Cc3ccccc3C(F)(F)F)CC2)cc1 | inactive: -10.5%
22 | Cn1c(=O)[nH]c(Nc2ccc(F)cc2)c([N+](=O)[O-])c1=O | inconclusive: -28.1%
23 | CN(C)c1ccc(C(I)C(I)c2ccnc3ccccc23)cc1 (stereo not given) | inconclusive: -75%
24 | CCOc1ccc(/C=C/C(=O)Nc2cccc3cccnc23)cc1OC | inconclusive: -28.6%
25 | Cc1c(CC(=O)N[C@@H](C)C(=O)O)c(=O)oc2c(C)c3occ(-c4ccccc4)c3cc12 | inconclusive: -29.7%
26 | Cc1ccccc1CN1CCN(CC2CC3C=CC2C3)CC1 (stereo not given) | inconclusive: -26.1%
27 | C/C(C/C(C)=C1/SC(=S)NC1=O)=C1\SC(=S)NC1=O | active: -34.2%
28 | CCN1CCN(c2oc(-c3ccc(F)cc3)nc2C#N)CC1 | inconclusive: -25.4%

Row | SMILES | activity change
29 | O=C(c1cc(-c2ccccc2)c(-c2ccccc2)s1)C(c1ccccc1)c1ccccc1 | inconclusive: -26.1%
30 | COc1cc(OC)c(OC)cc1CNC(=O)c1cc(Cl)ccc1O | inactive: 1.57%
31 | O=C1N/C(=N\S(=O)(=O)c2ccccc2)S/C1=C\c1cc([N+](=O)[O-])ccc1O | active: -36.4%
32 | Cc1ccccc1NC(=O)CN1C(=O)N/C(=C\c2cccn2-c2ccc(C(=O)NC#N)cc2)C1=O | inconclusive: -29.8%
33 | CC(C)Oc1ccc2ccccc2c1/C=C(\C#N)c1nc2ccccc2[nH]1 | active: -30.4%
34 | Cc1[nH]nc2c1C1(CCN(Cc3ccccc3)CC1)C(C#N)=C(N)O2 | inactive: 0.0948%
35 | CC(=O)c1ccc(S(=O)(=O)NCCC(=O)NC2CCN(Cc3ccccc3)CC2)cc1 | inconclusive: -27.2%
36 | CC(OC(=O)Cc1c[nH]c2ccccc12)C(=O)NC(N)=O (stereo not given) | inconclusive: -25.1%
37 | Cc1cc(S(=O)(=O)NCc2ccccc2Cn2cccn2)ccc1Br | inconclusive: -25.3%
38 | Cc1cc(C(F)(F)F)nc(SCC(=O)c2ccccc2)n1 | inactive: 2.41%
39 | Cn1c(SCC(=O)Nc2sccc2C#N)nnc1-c1ccc(Cl)cc1 | inactive: -6.98%
40 | O=C(Nc1cccc(C(F)(F)F)c1)c1ccc(C2Nc3ccccc3S(=O)(=O)N2)cc1 (stereo not given) | inconclusive: -26.7%
41 | CSCCC(c1nc2ccccc2[nH]1)n1c(C)nc2ccccc21 (stereo not given) | inactive: -3.58%
42 | CCN(CC)S(=O)(=O)c1cc(NC(=O)c2n[nH]c3ccccc23)ccc1C | inconclusive: -26.6%
43 | O=C(NCc1ccccc1)c1ccc(-c2ccccc2)s1 | inconclusive: -25.7%
44 | COc1ccc(/C=C/c2nc3ccccc3o2)cc1OCC(C)C | inconclusive: -25.7%
45 | Cc1cccc(C)c1-n1nnnc1SC(C(=O)N(C)C)c1ccccc1 (stereo not given) | inactive: -0.122%
46 | Cc1ccc2oc(=O)c(S(=O)(=O)c3ccc(F)c(C)c3)cc2c1 | inactive: 2.19%
47 | O=C(OCc1ccccc1)N1CCC2CC1c1cc(/C=C/CCCSc3ncccn3)ccc12 (stereo not given) | active: -34%
48 | C[n+]1cnc(-c2ccccc2)cc1-c1ccccc1 | active: -48.5%
49 | CCn1c(=O)c(C(=O)Nn2c(C)nc3ccccc3c2=O)c(O)c2ccccc21 | inconclusive: -29%
50 | CCOc1ccc2c(c1)cc(C(=O)Nc1ccccc1OCC)n2C | active: -32.6%
51 | O=C(Nc1cccc2ncccc12)c1cccc(S(=O)(=O)NCC(F)(F)F)c1 | inconclusive: -26.2%
52 | COc1cccc(CN2c3ccccc3C3=C(C(c4ccccc4)C(C#N)=C(N)O3)S2(=O)=O)c1 (stereo not given) | inactive: -0.808%
53 | COc1ccc2[nH]cc(CCNC(=O)CCNc3nc(Cl)nc4nc[nH]c34)c2c1 | inconclusive: -25.5%
54 | CC(=O)N(C(C)=O)c1ncnc2c1c(-c1ccc(Cl)cc1)nn2C(C)(C)C | active: -47.7%
55 | CCN(CC)CC1CCN(C(=O)CCc2c[nH]c3ccccc23)CC1 | inconclusive: -25.5%
